Drawing on publication PMC4727891, “Molecular Basis of Orb2 Amyloidogenesis and Blockade of Memory Consolidation” (PLoS Biology, 2016), this text covers ThT fluorescence for one compound.

Each structure is given as a SMILES string.

This test addresses T1, Orb2B (Drosophila melanogaster, UniProt Q9VSR3).
T1 construct: gene orb2; aggregates
The test can be described thus: ThT fluorescence. The format is binding. The note with it: amyloid form; 25 µM ThT, 50 mM glycine pH 8.5.

T1 sequence (Q9VSR3 whole entry): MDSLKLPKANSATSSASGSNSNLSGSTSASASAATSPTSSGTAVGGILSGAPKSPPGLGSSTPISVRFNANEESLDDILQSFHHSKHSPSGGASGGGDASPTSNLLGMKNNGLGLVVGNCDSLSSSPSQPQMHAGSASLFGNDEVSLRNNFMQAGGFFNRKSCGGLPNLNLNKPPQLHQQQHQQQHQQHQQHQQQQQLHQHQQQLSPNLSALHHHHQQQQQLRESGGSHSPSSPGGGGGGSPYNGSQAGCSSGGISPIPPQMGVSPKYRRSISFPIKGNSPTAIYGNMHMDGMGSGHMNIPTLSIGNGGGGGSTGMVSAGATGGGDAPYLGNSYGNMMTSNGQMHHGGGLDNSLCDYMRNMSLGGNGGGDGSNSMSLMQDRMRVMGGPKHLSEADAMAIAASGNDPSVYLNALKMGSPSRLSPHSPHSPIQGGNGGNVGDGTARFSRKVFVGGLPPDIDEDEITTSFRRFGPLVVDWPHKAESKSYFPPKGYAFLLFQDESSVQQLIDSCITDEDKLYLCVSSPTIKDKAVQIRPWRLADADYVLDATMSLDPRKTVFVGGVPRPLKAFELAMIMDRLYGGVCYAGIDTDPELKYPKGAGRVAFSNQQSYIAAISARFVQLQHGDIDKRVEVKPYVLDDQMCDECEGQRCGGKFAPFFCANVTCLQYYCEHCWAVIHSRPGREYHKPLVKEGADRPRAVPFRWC

In the case of `Cc1ccc2c(c1)sc(-c1ccc(N(C)C)cc1)[n+]2C` [thioflavin T], the ThT fluorescence result was “Both recombinant Orb2A and Orb2B bind to thioflavin T (ThT) and Congo red (CR) dyes”.
